In US20190194347A1, “ANTIBODIES FOR EPIDERMAL GROWTH FACTOR RECEPTOR 3 (HER3)” (NOVARTIS AG, priority 2010, published 2019):
Changes are numbered by the printed parent chain.

System: Akt (S473) phosphorylation
Assay: Phospho-Akt (S473) in vitro cell assay, MCF7
Type: cell-based, human
Conditions: extent of inhibition, MCF7 cells
Protocol: Sub-confluent SK-Br-3 and BT-474 cells grown in complete media were harvested with accutase (PAA Laboratories) and resuspended in the appropriate growth media at a final concentration of 5×10^5 cells/mL. 100 μL of cell suspension was then added to each well of a 96-well flat bottomed plate (Nunc) to yield a final density of 5×10^4 cells/well. All plates were then incubated overnight at 37° C. prior to treatment with the appropriate concentration of HER3 antibodies (diluted in the appropriate media) for 80 minutes at 37° C. All media was gently aspirated and the cells washed with ice-cold PBS containing 1 mM CaCl2 and 0.5 mM MgCl2 (Gibco). The cells were lysed by adding 50 μL ice-cold lysis buffer (20 mM Tris (pH8.0)/137 mM NaCl/10% Glycerol/2 mM EDTA/1% NP-40/1 mM sodium orthovanadate/Aprotinin (10 μg/mL)/Leupeptin (10 μg/mL)) and incubated on ice with shaking for 30 minutes. Lysates were then collected and spun at 1800 g for 15 minutes at 4° C. to remove cell debris. […] Phosphorylated Akt was detected using 20 μL of SULFO-TAG anti-phospho-Akt (S473) antibody (Mesoscale Discovery) diluted 50-fold in 1% BSA/1× Tris/0.1% Tween-20 by incubating with shaking at room temperature for 2 hours. The wells were washed four times with 1× Tris/0.1% Tween-20 before adding 20 μL of Read buffer T with surfactant (Mesoscale Discovery) and the signal quantified using a Mesoscale Sector Imager. […]

B1: 09825 (antibody)
heavy: QVQLVESGGGLVQPGGSLRLSCAASGFTFSSYAMSWVRQAPGKGLEWVSAINSQGKSTYYADSVKGRFTISRDNSKNTLYLQMNSLRAEDTAVYYCARWGDEGFDIWGQGTLVTVSSASTKGPSVFPLAPSSKSTSGGTAALGCLVKDYFPEPVTVSWNSGALTSGVHTFPAVLQSSGLYSLSSVVTVPSSSLGTQTYICNVNHKPSNTKVDKRV[human IgG1 Fc not given here]
light: DIQMTQSPSSLSASVGDRVTITCRASQGISNWLAWYQQKPGKAPKLLIYGASSLQSGVPSRFSGSGSGTDFTLTISSLQPEDFAVYYCQQYSSFPTTFGQGTKVEIKRTVAAPSVFIFPPSDEQLKSGTASVVCLLNNFYPREAKVQWKVDNALQSGNSQESVTEQDSKDSTYSLSSTLTLSKADYEKHKVYACEVTHQGLSSPVTKSFNRGEC
  MCF7 pAkt % inhibition: 79%

B2: 10703 (antibody)
heavy: B1 heavy with Q1E, V5L
light: B1 light with V85T
  MCF7 pAkt % inhibition: 79%
